# This is one part of the list. Further columns of the screen follow, without active or inactive calls.
# Assays:
# Assay in all cases: Primary Screen for Target Class Profiling of Small Molecule Inhibitors of Methyltransferases
# [1] = molecular target: Glycine N-methyltransferase (Homo sapiens) (UniProt Q14749); conditions: purified enzyme, MTase-Glo SAH luminescence; measured here: GNMT inhibition; at 40 µM; stronger effect = lower value
# Outline: (§1)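 Each enzyme was assayed with SAM and its substrate. SAH formation detected by MTase-Glo luminescence; single-point 40 uM screen[…].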
# [2] = molecular target: Guanidinoacetate N-methyltransferase (Homo sapiens) (UniProt Q14353); conditions: purified enzyme, MTase-Glo SAH luminescence; measured here: GAMT inhibition; at 40 µM; stronger effect = lower value
# Outline: as §1
# [3] = molecular target: Histamine N-methyltransferase (Homo sapiens) (UniProt P50135); conditions: purified enzyme, MTase-Glo SAH luminescence; measured here: HNMT inhibition; at 40 µM; stronger effect = lower value
# Outline: as §1
# [4] = molecular target: Nicotinamide N-methyltransferase (Homo sapiens) (UniProt P40261); conditions: purified enzyme, MTase-Glo SAH luminescence; measured here: NNMT inhibition; at 40 µM; stronger effect = lower value
# Outline: as §1
# [5] = molecular target: Phenylethanolamine N-methyltransferase (Homo sapiens) (UniProt P11086); conditions: purified enzyme, MTase-Glo SAH luminescence; measured here: PNMT inhibition; at 40 µM; stronger effect = lower value
# Outline: as §1
# On the % scale 0 is the no-effect control and ±100 the full control effect.
smiles,measurement,setting,value
Cc1ccc(Cn2c(=O)c3ccccc3n3c(CCC(=O)N4CCN(c5ccc(Cl)cc5)CC4)nnc23)cc1,"activity change, negative = inhibition",[1],-6.09%
same,"activity change, negative = inhibition",[2],-0.023%
same,"activity change, negative = inhibition",[3],10.5%
same,"activity change, negative = inhibition",[4],3.36%
same,"activity change, negative = inhibition",[5],-2.71%
Cc1ccc(C)c(N2C(=O)c3cc4occc4n3CC2(C)C(=O)NC2CCCCCCC2)c1 (stereo not given),"activity change, negative = inhibition",[1],4.53%
same,"activity change, negative = inhibition",[2],-1%
same,"activity change, negative = inhibition",[3],-2.23%
same,"activity change, negative = inhibition",[4],3.05%
same,"activity change, negative = inhibition",[5],1.69%
C[C@H](CN1CCCC1)C(=O)c1ccc(C(F)(F)F)cc1,"activity change, negative = inhibition",[1],1.95%
same,"activity change, negative = inhibition",[2],7.53%
same,"activity change, negative = inhibition",[3],1.63%
same,"activity change, negative = inhibition",[4],-10.5%
same,"activity change, negative = inhibition",[5],-0.451%
CCCC(=O)N1Cc2ccccc2CC2(CCCN(Cc3ccccn3)C2)C1 (stereo not given),"activity change, negative = inhibition",[1],-6.38%
same,"activity change, negative = inhibition",[2],-4.34%
same,"activity change, negative = inhibition",[3],-3.1%
same,"activity change, negative = inhibition",[4],-12.6%
same,"activity change, negative = inhibition",[5],-9.03%
CC1CCC(=O)CC(SCC(O)C(=O)O)CCC(=O)O1 (stereo not given),"activity change, negative = inhibition",[1],-2.27%
same,"activity change, negative = inhibition",[2],-8.09%
same,"activity change, negative = inhibition",[3],0.423%
same,"activity change, negative = inhibition",[4],-17.6%
same,"activity change, negative = inhibition",[5],-1.93%
CC(=O)OCC(CCn1cnc2cnc(N)nc21)COC(C)=O,"activity change, negative = inhibition",[1],-7.32%
same,"activity change, negative = inhibition",[2],1.04%
same,"activity change, negative = inhibition",[3],-0.211%
same,"activity change, negative = inhibition",[4],-9.17%
same,"activity change, negative = inhibition",[5],3.65%
O=C(Nc1nnc(-c2ccc3c(c2)OCCO3)o1)C1CCCCC1,"activity change, negative = inhibition",[1],-3.14%
same,"activity change, negative = inhibition",[2],-8.16%
same,"activity change, negative = inhibition",[3],3.21%
same,"activity change, negative = inhibition",[4],-18.3%
same,"activity change, negative = inhibition",[5],-2.48%
NNc1nncc2ccccc12,"activity change, negative = inhibition",[1],-16.7%
same,"activity change, negative = inhibition",[2],9.9%
same,"activity change, negative = inhibition",[3],0.809%
same,"activity change, negative = inhibition",[4],-10.5%
same,"activity change, negative = inhibition",[5],1.8%
CC(C)CNC(=O)c1ccc2c(=O)n(C(C)C)c3nn(CC(=O)N(C)c4ccc(F)cc4)c(=O)n3c2c1,"activity change, negative = inhibition",[1],2.99%
same,"activity change, negative = inhibition",[2],4.49%
same,"activity change, negative = inhibition",[3],6.01%
same,"activity change, negative = inhibition",[4],-5.74%
same,"activity change, negative = inhibition",[5],0.441%
O=C(Nc1cn[nH]c1-c1nc2ccc(CN3CCOCC3)cc2[nH]1)NC1CC1,"activity change, negative = inhibition",[1],-6.29%
same,"activity change, negative = inhibition",[2],-1.46%
same,"activity change, negative = inhibition",[3],-6.56%
same,"activity change, negative = inhibition",[4],-19.4%
same,"activity change, negative = inhibition",[5],-0.454%
NCCOCCOCCNC(=O)Cc1ccc(Nc2nc(NCc3ccc(F)cc3)nc(NCC3CCCCC3)n2)cc1,"activity change, negative = inhibition",[1],-2.41%
same,"activity change, negative = inhibition",[2],17.1%
same,"activity change, negative = inhibition",[3],-20.7%
same,"activity change, negative = inhibition",[4],-37%
same,"activity change, negative = inhibition",[5],4.99%
O=C(NCc1c[nH]c2ncccc12)c1ccccc1Cl,"activity change, negative = inhibition",[1],-8.76%
same,"activity change, negative = inhibition",[2],-7.09%
same,"activity change, negative = inhibition",[3],-5.24%
same,"activity change, negative = inhibition",[4],-15.1%
same,"activity change, negative = inhibition",[5],-11.4%
CCc1cc2c(cc3n2CC(C)(C(=O)NC2CCCCCC2)N(CCCN(CC)CC)C3=O)s1 (stereo not given),"activity change, negative = inhibition",[1],5.97%
same,"activity change, negative = inhibition",[2],7.41%
same,"activity change, negative = inhibition",[3],-1.23%
same,"activity change, negative = inhibition",[4],0.05%
same,"activity change, negative = inhibition",[5],0.588%
Cc1ccc(Cl)cc1Nc1nn2c(=O)c3ccc(C(=O)NCCCOC(C)C)cc3nc2s1,"activity change, negative = inhibition",[1],3.51%
same,"activity change, negative = inhibition",[2],0%
same,"activity change, negative = inhibition",[3],2.95%
same,"activity change, negative = inhibition",[4],6.57%
same,"activity change, negative = inhibition",[5],1.93%
C=CC(=O)Nc1cccc(Oc2nc(Nc3ccc(N4CCN(C)CC4)cc3OC)ncc2Cl)c1,"activity change, negative = inhibition",[1],-15.9%
same,"activity change, negative = inhibition",[2],-5.35%
same,"activity change, negative = inhibition",[3],-24%
same,"activity change, negative = inhibition",[4],-16.9%
same,"activity change, negative = inhibition",[5],-4.4%
CN1CCN(C(=O)c2cc3n(n2)CC(C)(C(=O)NCc2ccccc2)N(C)C3=O)CC1 (stereo not given),"activity change, negative = inhibition",[1],1.8%
same,"activity change, negative = inhibition",[2],0%
same,"activity change, negative = inhibition",[3],0.385%
same,"activity change, negative = inhibition",[4],5.39%
same,"activity change, negative = inhibition",[5],2%
CCOc1ccccc1CN1C(=O)c2nc3ccccc3n2CC1(C)C(=O)NC1CCC(C)CC1 (stereo not given),"activity change, negative = inhibition",[1],-0.352%
same,"activity change, negative = inhibition",[2],0%
same,"activity change, negative = inhibition",[3],5.55%
same,"activity change, negative = inhibition",[4],-6.64%
same,"activity change, negative = inhibition",[5],0.14%
COc1cccc(Cn2nc3n(C(C)C)c(=O)c4ccc(C(=O)NCC(C)C)cc4n3c2=O)c1,"activity change, negative = inhibition",[1],-1.39%
same,"activity change, negative = inhibition",[2],2.94%
same,"activity change, negative = inhibition",[3],4.35%
same,"activity change, negative = inhibition",[4],-1.74%
same,"activity change, negative = inhibition",[5],2.09%
C[C@H]1CC[C@@]2(OC1)O[C@H]1CC3C4CC[C@H]5C[C@@H](O)[C@H](O)C[C@]5(C)C4=CC(=O)[C@]3(C)[C@H]1[C@@H]2C (stereo not given in full),"activity change, negative = inhibition",[1],-2.37%
same,"activity change, negative = inhibition",[2],-8.4%
same,"activity change, negative = inhibition",[3],2.29%
same,"activity change, negative = inhibition",[4],-15.9%
same,"activity change, negative = inhibition",[5],-4.59%
O=C(/C=C/c1ccc(O)c(O)c1)OCCc1ccccc1,"activity change, negative = inhibition",[1],-12.1%
same,"activity change, negative = inhibition",[2],13.2%
same,"activity change, negative = inhibition",[3],3.76%
same,"activity change, negative = inhibition",[4],-2.88%
same,"activity change, negative = inhibition",[5],7.27%
CC1CCC(NC(=O)C2(C)Cn3c(cc4sccc43)C(=O)N2Cc2ccccc2)CC1 (stereo not given),"activity change, negative = inhibition",[1],-4.51%
same,"activity change, negative = inhibition",[2],4.99%
same,"activity change, negative = inhibition",[3],-2.69%
same,"activity change, negative = inhibition",[4],-5.9%
same,"activity change, negative = inhibition",[5],-2.63%
COc1ccc(OC)c2c1cc1n2CC(C)(C(=O)NC2CCC(C)CC2)N(Cc2cccnc2)C1=O (stereo not given),"activity change, negative = inhibition",[1],-0.145%
same,"activity change, negative = inhibition",[2],2.23%
same,"activity change, negative = inhibition",[3],5.64%
same,"activity change, negative = inhibition",[4],1.63%
same,"activity change, negative = inhibition",[5],0.602%
Cc1cn2nc(C(=O)NC3CCC(C)CC3)cc2c(N2CCCC2)n1 (stereo not given),"activity change, negative = inhibition",[1],-7.97%
same,"activity change, negative = inhibition",[2],-5.94%
same,"activity change, negative = inhibition",[3],-30.2%
same,"activity change, negative = inhibition",[4],-18.1%
same,"activity change, negative = inhibition",[5],-9.73%
CCCC(Nc1nc(-c2ccc(NC(=O)NCC)c(OC)c2)ncc1C)c1cccnc1 (stereo not given),"activity change, negative = inhibition",[1],-20.8%
same,"activity change, negative = inhibition",[2],-11.3%
same,"activity change, negative = inhibition",[3],-40.5%
same,"activity change, negative = inhibition",[4],-25.3%
same,"activity change, negative = inhibition",[5],-18.5%
CCOC(=O)CNC(=O)C1(C)Cn2nc(C(=O)OCC)cc2C(=O)N1Cc1cccc(C)c1 (stereo not given),"activity change, negative = inhibition",[1],0.296%
same,"activity change, negative = inhibition",[2],-2.14%
same,"activity change, negative = inhibition",[3],4.93%
same,"activity change, negative = inhibition",[4],1.46%
same,"activity change, negative = inhibition",[5],-0.399%
O=C(OC1C=C(CO)C2C(OC3OC(CO)C(O)C(O)C3O)OC=CC12)c1ccc(O)cc1 (stereo not given),"activity change, negative = inhibition",[1],0%
same,"activity change, negative = inhibition",[2],-1.4%
same,"activity change, negative = inhibition",[3],-1.4%
same,"activity change, negative = inhibition",[4],-12.6%
same,"activity change, negative = inhibition",[5],1.87%
COCCc1noc(CNC(=O)c2ccc(-c3ccccc3Cl)o2)n1,"activity change, negative = inhibition",[1],-8.8%
same,"activity change, negative = inhibition",[2],-4.71%
same,"activity change, negative = inhibition",[3],-12.1%
same,"activity change, negative = inhibition",[4],-3.04%
same,"activity change, negative = inhibition",[5],-4.45%
Fc1ccc(-c2nnn3c2nc(NCc2ccccc2)c2ccccc23)cc1,"activity change, negative = inhibition",[1],-4.12%
same,"activity change, negative = inhibition",[2],0.975%
same,"activity change, negative = inhibition",[3],-1.12%
same,"activity change, negative = inhibition",[4],-4.09%
same,"activity change, negative = inhibition",[5],-5.57%
C=C1C(=O)O[C@@H]2C/C(C)=C\C(=O)/C=C(\C)[C@@H](OC(=O)/C(C)=C\C)[C@H](O)[C@@H]12,"activity change, negative = inhibition",[1],-4.8%
same,"activity change, negative = inhibition",[2],-16.7%
same,"activity change, negative = inhibition",[3],-10.6%
same,"activity change, negative = inhibition",[4],-28.9%
same,"activity change, negative = inhibition",[5],-12%
